# Reference: publication PMC7879653, “PSF functions as a repressor of hypoxia-induced angiogenesis by promoting mitochondrial function” (Cell Communication and Signaling : CCS, 2021)
# T1: PSF (polypyrimidine tract-binding protein-associated splicing factor), endogenous (human (endogenous in HRMECs), UniProt P23246 1-707)
# T1 construct: PSF, endogenous in human retinal microcapillary endothelial cells (HRMECs); source: endogenous, HRMEC total cell lysate or nuclear lysate
# T1 sequence (looked up): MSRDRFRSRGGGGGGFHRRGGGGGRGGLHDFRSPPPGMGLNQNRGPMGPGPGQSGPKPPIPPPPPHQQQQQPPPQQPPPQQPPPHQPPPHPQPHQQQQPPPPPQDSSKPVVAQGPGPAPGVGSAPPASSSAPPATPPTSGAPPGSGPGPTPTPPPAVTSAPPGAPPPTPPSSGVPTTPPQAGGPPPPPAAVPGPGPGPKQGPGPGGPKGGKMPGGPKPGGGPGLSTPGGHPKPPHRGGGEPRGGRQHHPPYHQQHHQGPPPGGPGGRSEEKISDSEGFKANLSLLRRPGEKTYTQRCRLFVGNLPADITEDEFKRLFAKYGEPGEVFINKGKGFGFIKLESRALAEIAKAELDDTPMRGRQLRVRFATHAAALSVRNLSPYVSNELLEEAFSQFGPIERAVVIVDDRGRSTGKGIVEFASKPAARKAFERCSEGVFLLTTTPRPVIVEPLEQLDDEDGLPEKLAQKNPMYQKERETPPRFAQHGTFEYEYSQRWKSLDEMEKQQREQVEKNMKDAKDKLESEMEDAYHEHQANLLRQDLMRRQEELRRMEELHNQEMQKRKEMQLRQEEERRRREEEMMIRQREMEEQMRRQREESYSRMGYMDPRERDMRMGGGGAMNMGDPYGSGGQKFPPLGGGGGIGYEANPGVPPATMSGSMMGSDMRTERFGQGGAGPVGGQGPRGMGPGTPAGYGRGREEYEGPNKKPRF
# B1: HIF-1α (hypoxia-inducible factor-1 alpha), endogenous (natural protein)
# chain: not shown
# notes: HIF-1α, endogenous in human retinal microcapillary endothelial cells (HRMECs); source: endogenous, HRMEC total cell lysate or nuclear lysate
# Molecular target: T1, PSF (polypyrimidine tract-binding …)
# Experiment: co-IP; endogenous proteins; HRMECs exposed to hypoxia (3 h, or a time course of 30 to 150 min); RIPA lysis; total cell lysates precipitated with anti-PSF antibody and protein G/A-Sepharose; blot with anti-HIF-1α, anti-PSF or anti-Hakai; cells untreated or transfected with scrambled siRNA, PSF siRNA or pcDNA-His-PSF
# Conditions: partners not purified
binder,measurement,value
B1,fold of precipitated HIF-1α against the vehicle group (90 min hypoxia),~4 fold
